Screen size: about 48,000 compounds; about 550 (1.1%) were called active. Inconclusive means that the source gave no clear call. Such entries were picked first, then a sample of the others. No stated cut-off is given here; in the data, active means potency below about 15 µM; inconclusive means mostly about 16 µM to 33 µM; inactive means weaker than that. A potency beside an inconclusive call is a rough fit, not a confirmed value.
Biological target: Lysosomal acid glucosylceramidase (Homo sapiens) (UniProt P04062)
Chain of UniProt P04062 (P04062 whole entry, looked up): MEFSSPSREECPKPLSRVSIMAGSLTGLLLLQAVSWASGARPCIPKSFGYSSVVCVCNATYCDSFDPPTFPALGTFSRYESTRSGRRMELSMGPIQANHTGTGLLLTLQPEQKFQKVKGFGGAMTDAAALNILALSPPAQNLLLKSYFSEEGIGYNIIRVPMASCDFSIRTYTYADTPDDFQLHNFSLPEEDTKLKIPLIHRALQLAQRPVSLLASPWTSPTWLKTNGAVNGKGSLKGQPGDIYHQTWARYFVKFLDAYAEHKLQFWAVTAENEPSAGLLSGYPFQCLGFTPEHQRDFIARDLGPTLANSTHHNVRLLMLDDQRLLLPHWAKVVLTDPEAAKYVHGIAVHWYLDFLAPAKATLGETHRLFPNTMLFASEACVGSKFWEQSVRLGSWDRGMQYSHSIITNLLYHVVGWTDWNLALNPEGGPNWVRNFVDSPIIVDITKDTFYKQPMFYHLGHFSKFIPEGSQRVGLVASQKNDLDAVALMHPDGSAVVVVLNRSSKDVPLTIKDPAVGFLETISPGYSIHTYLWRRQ
Test: Glucocerebrosidase;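 further: the screen sought inhibitors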
Details: purified enzyme, resorufin glucoside fluorescence (screen aimed at inhibitors), 20 min
Method in brief: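 Wild-type enzyme at 0.2 nM final in 50mM citric acid/KH2PO4, 10mM sodium taurocholate, 0.01% tween-20, pH 5.9, with resorufin beta-D-glucopyranoside at 30 uM final. Compounds titrated, 20 min at RT, red fluorescence read; AC50 from titration.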
Potency means the concentration at half of the fitted maximal effect.

Potency, active:
Oc1ccccc1Nc1nc(NCC2CCCO2)c2ccccc2n1 (centres undefined) 0.426 µM, Cc1cccc(Nc2nc(N)nc(CN3CCN(Cc4ccc5c(c4)OCO5)CC3)n2)c1 9.79 µM, COc1cccc(OCC(O)CN(CCO)Cc2ccccc2)c1 (centres undefined) 13.2 µM, CCOC(=O)c1cnn(-c2cc(C)c3ccccc3n2)c1N 12.2 µM, CCN1CCN(c2ncc(C(=O)Nc3c(F)cc(F)cc3Br)c3ccccc23)CC1 12.4 µM, CCC(C)NC(=O)CCC(=O)Nc1ccc2nc(N3CCOCC3)cc(C)c2c1 (centres undefined) 6.11 µM

Potency, inconclusive:
CCc1cccc(NC(=O)c2ccc(NS(=O)(=O)c3c(C)noc3C)cc2)c1 27.9 µM [decreasing], COc1ccc(C2(O)CC3CCC(C2)N3c2cc(C)nc(-c3ccccc3)n2)cc1 (centres undefined) 24.5 µM [decreasing], Cc1ccccc1-n1nc2c(c1NC(=O)c1ccc(Br)o1)CSC2 30.9 µM [decreasing], CN1CCN(c2oc(COc3ccc(-c4ccccc4)cc3)nc2C#N)CC1 30.3 µM [decreasing], O=C(COC(=O)C1CCCN1S(=O)(=O)c1ccc(Cl)cc1)Nc1ccc2c(c1)OCO2 (centres undefined) 32.3 µM [decreasing], O=C(NC1CCN(Cc2ccccc2)CC1)C1CCCN(S(=O)(=O)c2cccc3nonc23)C1 (centres undefined) 24.5 µM [decreasing], [O-][n+]1onc2c1CCc1c-2nc(-c2ccccc2)n1OCc1ccccc1 17.1 µM [decreasing], O=C(c1ccc(CS(=O)(=O)c2cccc(C(F)(F)F)c2)o1)N1CCN(c2ccccn2)CC1 17.1 µM [decreasing], CCCn1c(=N)n(CC(=O)c2ccco2)c2ccccc21 18 µM [decreasing], COc1ccc(C2NC3=C(CCCC3)C(C#N)(C#N)C2(C#N)C#N)cc1 (centres undefined) 17.9 µM [decreasing], O=C1[C@@H]2C(Cc3ccc(O)cc3)NC3(C(=O)Nc4ccc(F)cc43)[C@@H]2C(=O)N1c1ccccc1 (some centres undefined) 30.2 µM [decreasing], N#CC1=C(N)S[C@H](C(=O)C23CC4CC(CC(C4)C2)C3)[C@H]1c1ccncc1 28.4 µM [decreasing], COc1ccccc1C(=O)Nc1ccc2c(c1)nc1n2CCSC1 30.9 µM [decreasing], O=C(NCC1CCCO1)c1cc2c(s1)CS(=O)(=O)C2 (centres undefined) 21.7 µM [decreasing], COc1ccccc1NC(=O)C1=C(C)Nc2nnnn2C1c1cc(Br)ccc1OC (centres undefined) 32.1 µM [decreasing], COc1ccc(-n2nnnc2SCC(=O)Nc2nnc(C)s2)cc1OC 32.7 µM [decreasing], CCCCCOC(=O)CSc1nnc(-c2cc(OC)c(OC)c(OC)c2)o1 27.4 µM [increasing], Cc1cc(N2CCCCC2)n2ncc(-c3ccccc3)c2n1 23 µM [increasing], Cc1nn(C(=O)c2cc3sccc3[nH]2)c(C)c1C 15.7 µM [increasing], CCOC(=O)C1=C(CSc2nc(C)ccc2C#N)OC(N)=C(C#N)C1c1cccc(OC)c1OC (centres undefined) 16.7 µM [decreasing], O=C(c1ccco1)N1CCN(c2nc3ccccc3n3nnnc23)CC1 17.2 µM [increasing], CN1CCN(S(=O)(=O)c2cccc(C(=O)NC3CCCc4ccccc43)c2)CC1 (centres undefined) 17.9 µM [decreasing], CCn1c(=O)n(CC(=O)NCc2ccco2)c(=O)c2ccccc21 29.3 µM [decreasing], COc1ccc(OC)c(C2C=C(c3ccc(C)c(C)c3)Nc3nnnn32)c1 (centres undefined) 27.3 µM [decreasing], Cc1cc(NC(=O)CSc2n[nH]c(CC(C)C)n2)no1 20.7 µM [decreasing], CC(C)C(C(=O)NCc1ccco1)N(C(=O)CNS(=O)(=O)c1ccc(Cl)cc1)C1CCCC1 (centres undefined) 17.6 µM [decreasing], O=C(CN(C(=O)CSc1nnc(COc2ccccc2)o1)c1ccc(F)cc1)NC1CCCC1 20.2 µM [decreasing]

Potency, inactive:
O=C(Nc1ccc(N2CCOCC2)c(Cl)c1)c1cccc(F)c1 > 76.9 µM, CCC(=O)N(Cc1cc2cc(OC)ccc2[nH]c1=O)c1cccc(C)c1 > 76.9 µM, CN1CC(=O)N/C1=N\C(=O)Nc1ccc2c(c1)N(C)C(=O)CS2 > 76.9 µM, COc1ccc(OC)c(C(=O)CSc2nc3cccnc3n2C)c1 > 76.9 µM, Cc1c(Cc2ccccc2)c(=O)oc2c(C)c(OCc3nn[nH]n3)ccc12 > 76.9 µM, c1ccc(Nc2ccccc2Nc2ccccn2)nc1 > 76.9 µM, COc1cc2cc(C(c3nnnn3C3CCCCC3)N(C)C3CCCCC3)c(=O)[nH]c2cc1OC (centres undefined), Cc1nc(NCCNC(=O)c2ccco2)c2c(C)c(C)sc2n1 > 76.9 µM, CCOC(=O)C1=C(C)Nc2ncnn2C1c1cc(Br)ccc1F (centres undefined) > 76.9 µM, CC(=O)NC1=NC(=O)/C(=C/N2CCOCC2)S1 > 76.9 µM, CCOCCCn1c(=S)[nH]c2cc(C(=O)N3CCN(C)CC3)ccc2c1=O > 76.9 µM, Cc1nn(-c2ccc(F)cc2F)c2c1-c1nc(N3CCCC3)ncc1CC2 > 76.9 µM, CCOC(=O)c1cnc(SCC(=O)Nc2nc(C)c(C)s2)nc1N > 76.9 µM, Cc1onc(-c2ccccc2Cl)c1C(=O)Nc1ccc(-n2nncc2-c2ccco2)cc1 > 76.9 µM, O=C(O)c1cccc(N2CCCC2=O)c1 > 76.9 µM, CCCCNC(=O)Cn1cnc2c(cnn2-c2ccc(C)c(C)c2)c1=O > 76.9 µM

— PubChem BioAssay AID360 (National Center for Advancing Translational Sciences (NCATS), 2006)
